{"source": "paper PMC6556554", "about": "“The Molecular Basis for Apolipoprotein E4 as the Major Risk Factor for Late-Onset Alzheimer's Disease” (Journal of Molecular Biology, 2019)", "proteins": {"B1": {"name": "Apolipoprotein E2 (natural protein)", "chain": "not shown", "notes": "Human apolipoprotein E, isoform E2 (cysteine at 112 and at 158); made from the codon-optimized ApoE4 gene by site-directed mutagenesis; Tags were cleaved on column with PreScission (HRV 3C site); residues of the site may be left at the N-terminus; Cloning details are in the supplementary information; also called ApoE2; source: E. coli Rosetta2(DE3), purified (Talon beads, HiTrap heparin, Superdex …)"}}, "biological_target": "the molecule itself", "experiment": "SEC + SEC-MALS; gel filtration on HiLoad Superdex 26/600 200 pg in 20 mM Hepes, 300 mM NaCl, 10% glycerol pH 8.0; SEC-MALS at 5 mg/mL in 20 mM Hepes, 300 mM NaCl, 1 mM TCEP pH 8.0, RT, Shodex Kw-403 column; oligomer in solution"}
{"protein": "B1", "values": [{"measurement": "stoichiometry N", "result": 4}]}
